Test results reported in the supplement of paper PMC10126150.
Sequences with one replicate were seen in a single cluster, so their values are uncertain.

Test system: ATP
Assay: switch fluorescence ratio, 500 uM ATP over buffer (Cy3 cluster intensity, sum of 5 cycles each) (fold (ratio)); higher = stronger signal-on switching upon ATP binding; sequences stand for … in TCGTCGGCAGCGTCAGATGTGTATAAGAGACAGTTTTTTTTTTTTTTTTTTTTTTTTT…TC
Details: aptamer strand: ATP DNA aptamer (quencher-CACCTGGGGGAGTATTGCGGAGGAAGG + anchor), 100 nM annealed; ATP concentration: 500 uM; one replicate
Outline: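 Clusters with intensities outside 100-1000 RFU were excluded. The remaining Cy3-labelled switching-strand clusters on a modified Illumina MiSeq flow-cell had been annealed to 100 nM quencher-labelled ATP aptamer and imaged in selection buffer, then after 15 min with 500 uM ATP at 22 °C, for five cycles separated by NaOH stripping and re-annealing. The fluorescence ratio, averaged per switch-domain sequence, is each cluster's summed target-cycle Cy3 intensity over its summed buffer-cycle Cy3 intensity.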
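Also: ATP exposure 15 min at 22 °C before imaging.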

Sequence: AATAGATTCT
- switch fluorescence ratio: 0.952

Sequence: CCCCTGGTTG
- switch fluorescence ratio: 3.38

Sequence: GAGTTTAAGT
- switch fluorescence ratio: 0.972

Sequence: CGTCCCACAT
- switch fluorescence ratio: 1.4

Sequence: TATTCGTCTC
- switch fluorescence ratio: 0.972

Sequence: ATATCAGGTT
- switch fluorescence ratio: 1.01

Sequence: CTGTTAAAAC
- switch fluorescence ratio: 0.992

Sequence: TGAGCCGATG
- switch fluorescence ratio: 1.02

Sequence: GCATTGCGAA
- switch fluorescence ratio: 0.951

Sequence: AACACTTGCT
- switch fluorescence ratio: 1.05

Sequence: TAGGAGAGAA
- switch fluorescence ratio: 1

Sequence: GCTAGAAGCC
- switch fluorescence ratio: 0.912

Sequence: TGAACTACTC
- switch fluorescence ratio: 1.12

Sequence: ACATCCGCAT
- switch fluorescence ratio: 2.05

Sequence: AACTGCTGAT
- switch fluorescence ratio: 0.954

Sequence: GGAAAGAATC
- switch fluorescence ratio: 1.05

Sequence: TTAGTACTA
- switch fluorescence ratio: 1.02

Sequence: GGACTCACGC
- switch fluorescence ratio: 1.43

Sequence: CGGATCAAGT
- switch fluorescence ratio: 1.03

Sequence: ACGTTGCTTC
- switch fluorescence ratio: 1.02

Sequence: GAACTCTAAA
- switch fluorescence ratio: 1.02

Sequence: AACTCTCCG
- switch fluorescence ratio: 1.25

Sequence: TACGGGTGCG
- switch fluorescence ratio: 0.959

Sequence: TCACTTCGTA
- switch fluorescence ratio: 1.06

Sequence: AACGGAAAAC
- switch fluorescence ratio: 1.11

Sequence: CGTGCTTTGG
- switch fluorescence ratio: 0.954

Sequence: TCAAAATCGC
- switch fluorescence ratio: 0.95

Sequence: TAGATCATTA
- switch fluorescence ratio: 0.999

Sequence: GGTAATTAGT
- switch fluorescence ratio: 1

Sequence: CTGCGGACCC
- switch fluorescence ratio: 1.19

Sequence: GGAGCAACGG
- switch fluorescence ratio: 1.4

Sequence: CGAGGTGCCC
- switch fluorescence ratio: 1.03

Sequence: TATTACTGGG
- switch fluorescence ratio: 1.02

Sequence: TCTTCGCGAA
- switch fluorescence ratio: 1.78

Sequence: GACTGGGTGT
- switch fluorescence ratio: 1.19

Sequence: AACTATTACG
- switch fluorescence ratio: 1.09

Sequence: TAGGGTGGTT
- switch fluorescence ratio: 1.01

Sequence: TTTAGTTGGC
- switch fluorescence ratio: 1.03

Sequence: GCTCCTTAAA
- switch fluorescence ratio: 1

Sequence: TGACTAATTG
- switch fluorescence ratio: 1.01

Sequence: CAATCTTTT
- switch fluorescence ratio: 0.981

Sequence: CATCAACGTG
- switch fluorescence ratio: 1.03

Sequence: GCAGTGAGGT
- switch fluorescence ratio: 0.979

Sequence: TCTATTGTAG
- switch fluorescence ratio: 1.01

Sequence: TCTATATAAT
- switch fluorescence ratio: 1.01

Sequence: AGTCCGTAGG
- switch fluorescence ratio: 1.01

Sequence: TCGAGAGTGT
- switch fluorescence ratio: 0.978

Sequence: AATTAGCGGC
- switch fluorescence ratio: 1.03

Sequence: GGTTATGTTA
- switch fluorescence ratio: 0.99

Sequence: CTAGTAGGTT
- switch fluorescence ratio: 0.957

Sequence: TCCTCTGGCA
- switch fluorescence ratio: 3.8

Sequence: CGAGGTGTGC
- switch fluorescence ratio: 0.947

Sequence: TTTATGCGTA
- switch fluorescence ratio: 0.959

Sequence: GCGGGCCACT
- switch fluorescence ratio: 1.01

Sequence: CGGTAGTCGT
- switch fluorescence ratio: 0.985

Sequence: GCGCGTATTA
- switch fluorescence ratio: 1.01

Sequence: CCGTTAAGC
- switch fluorescence ratio: 1.57

Sequence: TAGATGGGCA
- switch fluorescence ratio: 1

Sequence: TATGTAACCA
- switch fluorescence ratio: 0.982

Sequence: AGGCCTCAAC
- switch fluorescence ratio: 1.05

Sequence: CCGTTAACCG
- switch fluorescence ratio: 1.04

Sequence: CAAGGATTAC
- switch fluorescence ratio: 1.15

Sequence: GACCGCGTCT
- switch fluorescence ratio: 1.06

Sequence: GTATTAAGA
- switch fluorescence ratio: 1.01

Sequence: GTACGAGAAT
- switch fluorescence ratio: 1.01

Sequence: GAGGCCCATC
- switch fluorescence ratio: 1.02

Sequence: CCTTACCAGC
- switch fluorescence ratio: 2.04

Sequence: TTTGCCCGAT
- switch fluorescence ratio: 1.02

Sequence: CTATTCTCGA
- switch fluorescence ratio: 0.975

Sequence: TACAGGGATT
- switch fluorescence ratio: 1.01

Sequence: CATTACCGTG
- switch fluorescence ratio: 0.974

Sequence: GATCATGGAA
- switch fluorescence ratio: 0.975

Sequence: ATCCTGCGCA
- switch fluorescence ratio: 6.99

Sequence: CTATGCGTAT
- switch fluorescence ratio: 0.996

Sequence: GTGTCCGAGT
- switch fluorescence ratio: 0.996

Sequence: CGGCCCCTGT
- switch fluorescence ratio: 1.05

Sequence: TTATTGAGGG
- switch fluorescence ratio: 1.02
